Data on three compounds can be found in a compilation of properties of binary mixtures (doi:10.1016/j.molliq.2022.119052).

This data set in a line: xn = mol fraction of the nth substance listed. To be noted: 100 kPa, x1 = 0.333.

Some of these densities may be calculated back from excess volumes.

With `CC[n+]1ccn(C)c1.[Cl-]` + OCC(O)CO, the mass density – broadly, mass per unit of volume – was 1150 kg/m3 (298.15 K), 1146 kg/m3 (313.15 K), 1144 kg/m3 (323.15 K) and 1140 kg/m3 (333.15 K).

For the compound `Cn1cc[nH+]c1.[Cl-]` + OCC(O)CO, the mass density is listed as 1194 kg/m3 (303.15 K) and 1183 kg/m3 (323.15 K).

In the case of `CCn1cc[nH+]c1.[Cl-]` + OCC(O)CO, the mass density is, setting by setting: (298.15 K) 1150 kg/m3; (313.15 K) 1142 kg/m3; (323.15 K) 1136 kg/m3; (333.15 K) 1130 kg/m3.
